These are yes or no findings as the source states them, for the method shown. In cells and extracts the contact can be indirect. Some results given as binding are weak or reduced against the parent protein; the word gives no strength. Sequences can lack the tags named with a protein.

The labels stand for the following.
T1: Cox17 fusion protein with a C-terminal FLAG tag (S. cerevisiae) (UniProt Q12287)
T1 sequence: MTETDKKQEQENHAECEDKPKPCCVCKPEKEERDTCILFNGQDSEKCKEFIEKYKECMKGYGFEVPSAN

T2: Mic60 with a C-terminal protein A tag (S. cerevisiae) (UniProt P36112)
T2 sequence: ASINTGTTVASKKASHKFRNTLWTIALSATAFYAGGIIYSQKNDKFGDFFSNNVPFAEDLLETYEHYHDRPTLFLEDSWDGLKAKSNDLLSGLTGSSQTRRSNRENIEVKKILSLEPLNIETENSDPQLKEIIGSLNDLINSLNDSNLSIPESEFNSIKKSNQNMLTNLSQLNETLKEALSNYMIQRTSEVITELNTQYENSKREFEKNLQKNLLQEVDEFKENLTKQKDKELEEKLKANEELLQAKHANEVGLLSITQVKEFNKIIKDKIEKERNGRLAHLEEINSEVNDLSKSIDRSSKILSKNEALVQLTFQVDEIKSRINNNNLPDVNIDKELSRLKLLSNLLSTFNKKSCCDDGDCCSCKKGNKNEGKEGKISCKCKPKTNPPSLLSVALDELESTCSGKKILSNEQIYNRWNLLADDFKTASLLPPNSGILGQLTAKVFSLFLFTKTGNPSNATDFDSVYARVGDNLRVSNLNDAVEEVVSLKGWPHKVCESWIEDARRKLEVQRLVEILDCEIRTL

B1: Cyc3 (protein, UniProt P06182 1-269)
chain: MGWFWADQKTTGKDIGGAAVSSMSGCPVMHESSSSSPPSSECPVMQGDNDRINPLNNMPELAASKQPGQKMDLPVDRTISSIPKSPDSNEFWEYPSPQQMYNAMVRKGKIGGSGEVAEDAVESMVQVHNFLNEGCWQEVLEWEKPHTDESHVQPKLLKFMGKPGVLSPRARWMHLCGLLFPSHFSQELPFDRHDWIVLRGERKAEQQPPTFKEVRYVLDFYGGPDDENGMPTFHVDVRPALDSLDNAKDRMTRFLDRMISGPSSSSSAP
B2: Mic60 (protein, UniProt P36112 18-540)
chain: T2 sequence
B3: Mia40 (protein, UniProt P36046 32-403)
chain: MASSPQFGRNSNQEKTAGFIMGILSMAGALYFIAPNRKPLFASRKVESDKTAEEELSSGGEQSPENEDDNNSKSDENGDDNDSKNDETEAGPQLGGDKIGASKVAEDGELVVLAEEDNKSSEDKDTDESKVSTKDDEQSNEDNATANNQKDENISSENSEENTSDKTLDNNAGSSEKKDPEHSDDEKSQQGQSDDKTTTEDNNGEEESSKKTVSDSENSAKQSESSDEEKEELRKQEEKQMGPTEEEVQHEGAYNPDTGEINWDCPCLGGMAHGPCGEEFKSAFSCFVYSEAEPKGIDCVEKFQHMQDCFRKYPEHYAEQLKETSDDEEPQDKVKVNTIESAPNVSSAKENAAKKAEQSDVKKEPLNEESKP
B4: native Cox17 (protein, UniProt Q12287 1-69)
chain: T1 sequence
B5: Mic26 (protein, UniProt P50087 1-233)
chain: MTKDFYRQLDPVEEKIVPPENAIVISSEAKEATVNEKEAKQGVLSQRVMKYIGENELVDGISVRDPDYLKRFFNERRKQFSAKWDKVTNKIDDIAGRYYAREESFTSTIASLHTDPNERLIPGLLSILVASMTGSVLARRRTWLLRATMPIILGSCCFAYAMPTTFRNTMGLIHNLEMNTFPHFTERQDRVWKETKRLSTASVQYYYDAKKWLNKDVEKTGNAIKNWTGVNVK
B6: Mic12 (protein, UniProt P38341 1-106)
chain: MSKLGPLARSVKWTLSVGVIGSVFYLYRYSNNGYFYDHDATWLKQDHQVQDLVDRKEVVPGETRNRKLVVTDDGTAWSRTMGESIKDIWNEQIRNSVDWIYSWGKN
B7: Mic10 (protein, UniProt Q96VH5 1-97)
chain: MSEQAQTQQPAKSTPSKDSNKNGSSVSTILDTKWDIVLSNMLVKTAMGFGVGVFTSVLFFKRRAFPVWLGIGFGVGRGYAEGDAIFRSSAGLRSSKV
B8: Mic19 (protein, UniProt P43594 1-170)
chain: MGSNTSKVGAGAEKQQVYTPLTQIDFSQSLVSQLDSSKESDYVTKQNAEKFIEKKVSQRLSNLEVETLKKFEDTLNNSLLSDDDKDAVDGISSSSLNNQIESLNKKLTLFDQLELQKLEKYGGAKGKSDKKTDNGSISIKAKLTECLLANKGKPLNCYEEMEEFKKLVMG
B9: Erv1 (protein, UniProt P27882 1-189)
chain: MKAIDKMTDNPPQEGLSGRKIIYDEDGKPCRSCNTLLDFQYVTGKISNGLKNLSSNGKLAGTGALTGEASELMPGSRTYRKVDPPDVEQLGRSSWTLLHSVAASYPAQPTDQQKGEMKQFLNIFSHIYPCNWCAKDFEKYIRENAPQVESREELGRWMCEAHNKVNKKLRKPKFDCNFWEKRWKDGWDE
B10: Ccp1 (protein, UniProt P00431 68-361)
chain: TTPLVHVASVEKGRSYEDFQKVYNAIALKLREDDEYDNYIGYGPVLVRLAWHTSGTWDKHDNTGGSYGGTYRFKKEFNDPSNAGLQNGFKFLEPIHKEFPWISSGDLFSLGGVTAVQEMQGPKIPWRCGRVDTPEDTTPDNGRLPDADKDADYVRTFFQRLNMNDREVVALMGAHALGKTHLKNSGYEGPWGAANNVFTNEFYLNLLNEDWKLEKNDANNEQWDSKSGYMMLPTDYSLIQDPKYLSIVKEYANDQDKFFKDFSKAFEKLLENGITFPKDAPSPFIFKTLEEQGL
B11: Mir1 (protein, UniProt P23641 1-311)
chain: MSVSAAPAIPQYSVSDYMKFALAGAIGCGSTHSSMVPIDVVKTRIQLEPTVYNKGMVGSFKQIIAGEGAGALLTGFGPTLLGYSIQGAFKFGGYEVFKKFFIDNLGYDTASRYKNSVYMGSAAMAEFLADIALCPLEATRIRLVSQPQFANGLVGGFSRILKEEGIGSFYSGFTPILFKQIPYNIAKFLVFERASEFYYGFAGPKEKLSSTSTTLLNLLSGLTAGLAAAIVSQPADTLLSKVNKTKKAPGQSTVGLLAQLAKQLGFFGSFAGLPTRLVMVGTLTSLQFGIYGSLKSTLGCPPTIEIGGGGH

The target in the first assay is T1, Cox17 fusion protein with a C-terminal FLAG tag (S. cerevisiae). Nature of the assay: co-IP; anti-FLAG M2 affinity gel on isolated wild-type mitochondria solubilized in 1% digitonin, 10% glycerol, 20 mM Tris-HCl pH 7.4, 300 mM NaCl, 50 mM iodoacetamide; Western blot of eluate. In general terms: In western blotting, separated proteins are transferred to a membrane and probed.
On to B1, for which the binding entry is given as “no binding”. Take B2: the binding entry is “binds”. The same measure, in the same setting: the value for B3 was “binds”.

The target in a further assay is T2, Mic60 with a C-terminal protein A tag (S. cerevisiae). Description: co-IP; Mic60_(ProtA) captured on immunoglobulin G-Sepharose from isolated mitochondria solubilized in 1% digitonin, 10% glycerol, 20 mM Tris-HCl pH 7.4, 50 mM NaCl, 0.5 mM EDTA, 50 mM iodoacetamide, 1 h at 4 °C; Western blot of eluate; wild-type and sco1Δ background.
With B4, the binding result is recorded as “binds”.

Take B5: the binding result was “binds”. Still for that read-out and setting: next, B6: “binds”; B7: “binds”. Consider B8, for which the binding entry was “binds”.

A further assay deals with T1, Cox17 fusion protein with a C-terminal FLAG tag (S. cerevisiae). Description: co-IP; anti-FLAG M2 affinity gel on yeast cell extracts (French press, 1% digitonin, 20 mM Tris-HCl pH 7.4, 50 mM NaCl, 50 mM iodoacetamide), 1.5 h at 4 °C; Western blot of eluate; wild-type, mic60Δ, mic10Δ and sco1Δ cells; cells grown with or without 2.2 mM copper sulfate.
As for B9, the binding result is recorded as “binds”. The same measure, in the same setting: the value for B1 was “no binding”. With B2, the binding entry is listed as “binds”.

Consider B10, for which the binding entry is listed as “no binding”. As for B11, the binding entry is on record as “no binding”. On to B3, for which the binding entry is on record as “binds”.

The record behind these values is PMC4463469.
